About 50,000 (12%) of roughly 420,000 compounds were called active. Inconclusive results, whose numbers are uncertain, are shown with a selection of clear calls. The call rests on the fitted dose curve; in most records, active means well fitted inhibition curve with a large enough effect; inconclusive means small, poorly fitted or top-dose-only effect; inactive means flat fitted curve, though single readings scatter. Potencies of inconclusive entries are left out as doubtful fits.
Assay: qHTS for Inhibitors of human tyrosyl-DNA phosphodiesterase 1 (TDP1): qHTS in cells in presence of CPT; further: nearly all actives have a fitted effect of over 55% in size
Settings: chicken DT40 Tdp1-/-;hTDP1 cells + 20 nM CPT, ATP luminescence, 48 h; series mostly up to 46.2 µM
Procedure, shortened: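 Chicken DT40 Tdp1-/- cells stably complemented with human TDP1 were seeded at 400 cells/well in medium containing 20 nM camptothecin, exposed to pin-transferred compounds, and grown at 37 °C for at least 48 hr. Viability was read as ATP luminescence.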
Potency means the concentration at half of the fitted maximal effect; tags describe the fitted curve by direction and shape.

Structure (SMILES) | Potency
CCN(C(=O)CSc1nnc(-c2ccccc2Cl)n1C1CCCC1)C1CCS(=O)(=O)C1 (configuration not stated) | inconclusive [inhibitor, single point]
CCOC(=O)c1sc2nc(CSc3ccccc3Cl)[nH]c(=O)c2c1C | inconclusive [inhibitor, full curve, poor fit]
CCOc1ncccc1C(=O)OCC(=O)NCc1cccs1 | inactive
CC(O)(c1ccc(F)c(F)c1)c1nc(-c2ccc(F)c(Cl)c2)cs1 (configuration not stated) | inconclusive [inhibitor, single point]
O=C(OCC(=O)N1CCN(C(=O)c2ccco2)CC1)c1ccccc1OCc1ccc(Cl)cc1 | active: 16.4 µM
Clc1nc(NCc2ccco2)c2ccccc2n1 | inconclusive [inhibitor, partial curve, poor fit]
COCC(Cc1ccccc1)NC(=O)Cn1cc(C)c(=O)[nH]c1=O (configuration not stated) | inactive
CCCCn1c(N)c(N(CCC(C)C)C(=O)c2ccc([N+](=O)[O-])o2)c(=O)[nH]c1=O | inactive
COc1ccc(CNC(=O)c2cc(=O)[nH]c3ccc(S(=O)(=O)N4CCCC4)cc23)c(OC)c1 | inactive
CCCC(=O)N(Cc1cc2cc(C)ccc2[nH]c1=O)c1ccccc1OC | inconclusive [inhibitor, single point]
CCN(CC)c1ccc(C(=O)NNC(=O)C2CCN(c3ncnc4sc(C)c(C)c34)CC2)cc1 | inconclusive [inhibitor, single point]
CC(C)NC(=O)C1(C)CCCN1Cc1csc2ccccc12 (configuration not stated) | inconclusive [inhibitor, single point]
Cc1cc(Cl)ccc1C(O)c1ncc(-c2cccc3ccccc23)[nH]1 (configuration not stated) | inconclusive [inhibitor, single point]
Cn1cccc1C(=O)N1CCC[C@@]2(CCN(c3ccccc3)C2)C1 | inconclusive [inhibitor, single point]
O=C(Nc1sccc1C(=O)NCc1ccco1)c1cccnc1 | inconclusive [inhibitor, single point]
O=C(OCc1ccccc1)N1CCC2CC1c1cc(-c3cc4ccccc4o3)ccc12 (configuration not stated) | inconclusive [inhibitor, single point]
COc1ccc(-c2ccc3c(c2)[C@@H]2C[C@H](N(C)C(=O)Nc4ccccc4)[C@H]([C@H](C)O)C(=O)N2CC3)cc1 | inconclusive [inhibitor, single point]
O=C(NCCc1ccccc1)C1CCN(Cc2cc3ccccc3n2Cc2cccc(Cl)c2)CC1 | inconclusive [inhibitor, single point]
CCOc1ccc(NS(=O)(=O)c2cc(NC(=O)c3cccc(C)c3)ccc2Cl)cc1 | active: 16.4 µM
COc1ccc(OC)c(NC(=O)C(=O)/C=C(\O)c2cc(OC)ccc2OC)c1 | inconclusive [inhibitor, single point]
O=C(c1cnn2c(C(F)(F)F)cc(-c3cccs3)nc12)N1CCCC1 | inconclusive [inhibitor, partial curve, poor fit]
CCOC(=O)CN(Cc1ccccc1)C(C(=O)NC1CCCCC1)c1ccc(OC)cc1 (configuration not stated) | inconclusive [inhibitor, single point]
O=C(Nc1ccccc1)c1cc(C2CCCCN2S(=O)(=O)c2cccs2)on1 (configuration not stated) | inactive

Structure (SMILES) | Potency
CC(=O)c1cccc(NC(=O)C(CC(C)C)NS(=O)(=O)c2ccc3c(c2)CCN3C(C)=O)c1 (configuration not stated) | inactive
COc1ccc(CN(CC(=O)NCCc2ccccc2)C(=O)CCC(=O)Nc2cc(C)ccn2)cc1 | inactive
COc1ccccc1CCNC(=O)c1cccc(S(=O)(=O)NCc2ccccc2)c1 | inconclusive [inhibitor, single point]
Cc1c(Cc2ccccc2)c(=O)oc2cc(OCC(=O)NCc3ccccn3)ccc12 | inconclusive [inhibitor, single point]
CCOC(=O)N1CCN(C(=O)C[C@@H]2C[C@@]3(C(=O)OC)CCCCC=C3N(Cc3ccccc3)C2=O)CC1 | inconclusive [inhibitor, partial curve, poor fit]
O=C(Nc1ccccc1)c1ccc(Br)c(S(=O)(=O)Nc2cccnc2)c1 | inactive
Cc1ccc(C(c2nc3ccccc3[nH]2)n2c(-c3ccccc3)nc3ccccc32)cc1 (configuration not stated) | inconclusive [inhibitor, single point]
COc1cccc(Nc2sc(C(=O)c3ccc(Cl)cc3)c(N)c2C(=O)NCc2ccc(C)cc2)c1 | active: 2.91 µM
COc1ccc(CC2S/C(=C(\C#N)C(=O)NCc3ccco3)N(c3ccc(C)cc3)C2=O)cc1 (configuration not stated) | inconclusive [inhibitor, single point]
COc1ccccc1CCNC(=O)C(=O)Nc1cc2c3c(c1)C(C)C(=O)N3CCC2 (configuration not stated) | inconclusive [inhibitor, single point]
COc1ccccc1C(=O)NCCC(=O)Nc1ccc(S(=O)(=O)N2CC(C)CC(C)C2)cc1 (configuration not stated) | inconclusive [inhibitor, single point]
COc1ccc(C(=O)N(Cc2ccco2)Cc2cc3cc(C)ccc3[nH]c2=O)cc1OC | inconclusive [inhibitor, single point]
CCOc1cc(C(=O)Nc2cccc3cccnc23)cc(OCC)c1OCC | inconclusive [inhibitor, single point]
Cc1ccc(C(=O)c2ccccc2C(=O)OCC(=O)N2C(C)CCCC2C)cc1 (configuration not stated) | inconclusive [inhibitor, single point]
Cc1cc(NC(=O)CSc2nc(-c3ccccc3C)nc3c2c(=O)n(C)c(=O)n3C)no1 | inactive
CCC(CC)COC(=O)C1=C(C)NC(=O)NC1c1ccc([N+](=O)[O-])cc1 (configuration not stated) | inconclusive [inhibitor, single point]
COc1ccc(Cl)cc1NC(=O)c1ccc2c(c1)CCN2S(C)(=O)=O | inconclusive [inhibitor, single point]
Cc1cc(Br)ccc1NC(=S)NCCc1ccccc1 | inconclusive [inhibitor, partial curve]
CCOc1cc(/C=N/O)cc(Br)c1OCc1ccc(Cl)cc1 | inconclusive [inhibitor, single point]
C=CCOc1ccc(C(=O)/C=C2/C(=O)Nc3ccccc32)cc1 | active: 16.4 µM
CC(C)(C)c1nnc2sc(SC/C(O)=C(\C#N)c3nc4ccccc4[nH]3)nn2c1=O | inactive
CC1=C/C(=N\OS(=O)(=O)c2ccccc2)C(C(C)C)=CC1=O | active: 1.64 µM
COC(=O)c1cc(Sc2c(Cl)cccc2Cl)ccn1 | inactive

Structure (SMILES) | Potency
COc1ccc(-c2cc3nc(C)c(CCC(=O)N4CCN(c5ccc(F)cc5)CC4)c(C)n3n2)c(OC)c1 | active: 23.1 µM
Cc1ccc(Nc2nc3ccccc3c3nnc(C)n23)c(C)c1 | active: 11.6 µM
CCCc1cc(=O)[nH]c(Nc2ccc(N3CCCCC3)cc2)n1 | inconclusive [inhibitor, partial curve]
O=C(c1cnccn1)N1CCC2(CCCN(c3cccc(-c4ccccc4)c3)C2)CC1 | inconclusive [inhibitor, single point]
Cc1noc(C)c1CCC(=O)Nc1c(C(C)C)cccc1C(C)C | inactive
COc1ccccc1-c1ccnc(-n2ncc(C(=O)NC(C)(C)CO)c2C2CC2)n1 | inactive
CC1=NN(c2ccccc2C(=O)O)C(=O)C1N=Nc1ccccc1 (configuration not stated) | active: 13 µM
CCOC(=O)C1=C(CSc2nc3c(cc2C#N)CN(C)CC3)OC(N)=C(C#N)C1c1ccc(F)cc1 (configuration not stated) | inconclusive [inhibitor, single point]
COc1ccc(C2=Nc3ccccc3N(C(=O)c3ccc4ncccc4c3)C2C(=O)NC(C)(C)C)cc1 (configuration not stated) | active: 13 µM
O=C(O)c1cccc(COc2ccc3c(c2)CCC3)c1 | inactive
COc1ccc(/C=C2/C(=O)N(c3c(F)c(F)c(F)c(F)c3F)N=C2C)cc1 | inconclusive [inhibitor, single point]
CSCCC(NC(=O)c1ccc([N+](=O)[O-])cc1Cl)C(=O)OCC(=O)N(C)C (configuration not stated) | inactive
Cc1cnc(C(=O)N2CCCC(N3CCN(c4ccccc4C)CC3)C2)cn1 (configuration not stated) | active: 18.4 µM
CC1=C(C(=O)Nc2cc(C)ccc2C)C(c2cccs2)NC(=S)N1 (configuration not stated) | inconclusive [inhibitor, single point]
Cc1nc2c(OCc3ccc(Cl)cc3)cccn2c1N(C)Cc1cccs1 | inconclusive [inhibitor, single point]
O=C1CCN(Cc2ccc([N+](=O)[O-])cc2)CCN1[C@H](CO)c1ccccc1 | inconclusive [inhibitor, single point]
COc1ccc(-n2c(=O)c(-c3cccs3)nc3cnc(N4CCNCC4)nc32)cc1 | inconclusive [inhibitor, single point]
COc1ccc(-c2c[n+]3c4n2CCCCC4=C(c2ccccc2)C3)cc1 | active: 3.26 µM
CC(=O)Nc1ccc(C2=NN(c3ccccc3)C(c3ccccc3)C2)cc1 (configuration not stated) | inconclusive [inhibitor, single point]
CCC(C)N(c1ccc(/C=C/c2ccnc3ccccc23)cc1)C(C)CC (configuration not stated) | active: 7.08 µM
Cc1cccc(CNC(=O)c2sc(=O)n(Cc3c(C)cccc3C)c2C)c1 | inconclusive [inhibitor, partial curve, poor fit]

— PubChem BioAssay AID686979 (National Center for Advancing Translational Sciences (NCATS), 2013)
